# These are yes or no findings as the source states them, for the method shown. Some entries that bind do so weakly or less than the wild type. Sequences can lack the tags named with a protein.
# T1: AmiB (mature form, bacterial two-hybrid fusion) (E. coli) (UniProt P26365)
# T1 sequence: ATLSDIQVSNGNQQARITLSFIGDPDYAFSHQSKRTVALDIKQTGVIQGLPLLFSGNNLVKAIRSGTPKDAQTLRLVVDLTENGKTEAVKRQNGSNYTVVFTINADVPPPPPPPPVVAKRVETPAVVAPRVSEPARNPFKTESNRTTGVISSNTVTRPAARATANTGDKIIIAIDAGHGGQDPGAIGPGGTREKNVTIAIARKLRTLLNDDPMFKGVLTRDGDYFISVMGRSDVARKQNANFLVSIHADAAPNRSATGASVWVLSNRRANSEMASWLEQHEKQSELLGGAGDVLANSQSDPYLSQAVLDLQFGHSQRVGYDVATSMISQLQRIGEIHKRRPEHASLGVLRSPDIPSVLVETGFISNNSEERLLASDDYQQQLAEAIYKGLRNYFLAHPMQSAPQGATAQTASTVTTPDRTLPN
# Target: T1, AmiB (mature form, bacterial two-hybrid fusion) (E. coli)
# Assay: two-hybrid; BACTH (T18 and T25 fusions of split CyaA) in the cytoplasm of E. coli BTH101; cultures spotted on LB agar with X-gal and 0.5 mM IPTG, 20°C, 3 days
row,binding,Binder
1,binds,"EnvC L236E (bacterial two-hybrid fusion) (protein, UniProt P37690 35-419) DERDQLKSIQADIAAKERAVRQKQQQRASLLAQLKKQEEAISEATRKLRETQNTLNQLNKQIDEMNASIAKLEQQKAAQERSLAAQLDAAFRQGEHTGIQLILSGEESQRGQRLQAYFGYLNQARQETIAQLKQTREEVAMQRAELEEKQSEQQTLLYEQRAQQAKLTQALNERKKTLAGLESSIQQGQQQLSELRANESRERNSIARAEAAAKARAEREAREAQAVRDRQKEATRKGTTYKPTESEKSLMSRTGGLGAPRGQAFWPVRGPTLHRYGEQLQGELRWKGMVIGASEGTEVKAIADGRVILADWLQGYGLVVVVEHGKGDMSLYGYNQSALVSVGSQVRAGQPIALVGSSGGQGRPSLYFEIRRQGQAVNPQPWLGR"
2,no binding,"EnvC (wild-type, mature form, bacterial two-hybrid fusion) (protein, UniProt P37690 35-419) DERDQLKSIQADIAAKERAVRQKQQQRASLLAQLKKQEEAISEATRKLRETQNTLNQLNKQIDEMNASIAKLEQQKAAQERSLAAQLDAAFRQGEHTGIQLILSGEESQRGQRLQAYFGYLNQARQETIAQLKQTREEVAMQRAELEEKQSEQQTLLYEQRAQQAKLTQALNERKKTLAGLESSIQQGQQQLSELRANESRLRNSIARAEAAAKARAEREAREAQAVRDRQKEATRKGTTYKPTESEKSLMSRTGGLGAPRGQAFWPVRGPTLHRYGEQLQGELRWKGMVIGASEGTEVKAIADGRVILADWLQGYGLVVVVEHGKGDMSLYGYNQSALVSVGSQVRAGQPIALVGSSGGQGRPSLYFEIRRQGQAVNPQPWLGR"
3,no binding,"EnvC Arg237Glu (bacterial two-hybrid fusion) (protein, UniProt P37690 35-419) DERDQLKSIQADIAAKERAVRQKQQQRASLLAQLKKQEEAISEATRKLRETQNTLNQLNKQIDEMNASIAKLEQQKAAQERSLAAQLDAAFRQGEHTGIQLILSGEESQRGQRLQAYFGYLNQARQETIAQLKQTREEVAMQRAELEEKQSEQQTLLYEQRAQQAKLTQALNERKKTLAGLESSIQQGQQQLSELRANESRLENSIARAEAAAKARAEREAREAQAVRDRQKEATRKGTTYKPTESEKSLMSRTGGLGAPRGQAFWPVRGPTLHRYGEQLQGELRWKGMVIGASEGTEVKAIADGRVILADWLQGYGLVVVVEHGKGDMSLYGYNQSALVSVGSQVRAGQPIALVGSSGGQGRPSLYFEIRRQGQAVNPQPWLGR"
4,binds,"EnvC I240E (bacterial two-hybrid fusion) (protein, UniProt P37690 35-419) DERDQLKSIQADIAAKERAVRQKQQQRASLLAQLKKQEEAISEATRKLRETQNTLNQLNKQIDEMNASIAKLEQQKAAQERSLAAQLDAAFRQGEHTGIQLILSGEESQRGQRLQAYFGYLNQARQETIAQLKQTREEVAMQRAELEEKQSEQQTLLYEQRAQQAKLTQALNERKKTLAGLESSIQQGQQQLSELRANESRLRNSEARAEAAAKARAEREAREAQAVRDRQKEATRKGTTYKPTESEKSLMSRTGGLGAPRGQAFWPVRGPTLHRYGEQLQGELRWKGMVIGASEGTEVKAIADGRVILADWLQGYGLVVVVEHGKGDMSLYGYNQSALVSVGSQVRAGQPIALVGSSGGQGRPSLYFEIRRQGQAVNPQPWLGR"
5,no binding,"EnvC Glu233Arg (bacterial two-hybrid fusion) (protein, UniProt P37690 35-419) DERDQLKSIQADIAAKERAVRQKQQQRASLLAQLKKQEEAISEATRKLRETQNTLNQLNKQIDEMNASIAKLEQQKAAQERSLAAQLDAAFRQGEHTGIQLILSGEESQRGQRLQAYFGYLNQARQETIAQLKQTREEVAMQRAELEEKQSEQQTLLYEQRAQQAKLTQALNERKKTLAGLESSIQQGQQQLSELRANRSRLRNSIARAEAAAKARAEREAREAQAVRDRQKEATRKGTTYKPTESEKSLMSRTGGLGAPRGQAFWPVRGPTLHRYGEQLQGELRWKGMVIGASEGTEVKAIADGRVILADWLQGYGLVVVVEHGKGDMSLYGYNQSALVSVGSQVRAGQPIALVGSSGGQGRPSLYFEIRRQGQAVNPQPWLGR"
6,binds,"EnvC I240K (bacterial two-hybrid fusion) (protein, UniProt P37690 35-419) DERDQLKSIQADIAAKERAVRQKQQQRASLLAQLKKQEEAISEATRKLRETQNTLNQLNKQIDEMNASIAKLEQQKAAQERSLAAQLDAAFRQGEHTGIQLILSGEESQRGQRLQAYFGYLNQARQETIAQLKQTREEVAMQRAELEEKQSEQQTLLYEQRAQQAKLTQALNERKKTLAGLESSIQQGQQQLSELRANESRLRNSKARAEAAAKARAEREAREAQAVRDRQKEATRKGTTYKPTESEKSLMSRTGGLGAPRGQAFWPVRGPTLHRYGEQLQGELRWKGMVIGASEGTEVKAIADGRVILADWLQGYGLVVVVEHGKGDMSLYGYNQSALVSVGSQVRAGQPIALVGSSGGQGRPSLYFEIRRQGQAVNPQPWLGR"

# Source: publication PMC12505981
